The list shows a part of the results.
Legend:
Test in all cases: glycan array binding signal (z-score within array); higher = stronger binding
Conditions in all cases: glycan notation: IUPAC condensed, linker removed
[1] = molecular target: Neu5Ac(a2-3)GalNAc(b1-4)GlcNAc
Method in brief: (§1)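 The binding signal is a Z-score computed within each array. Data were drawn from 3228 arrays in the Consortium for Functional Glycomics database, restricted to those with a known protein sequence. Scores were averaged over arrays of the same protein sequence at different concentrations or buffers, and over linkers, and negative values can be taken as non-binding.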

[2] = molecular target: Neu5Ac(a2-3)[GalNAc(b1-4)]Gal(b1-4)Glc
Method in brief: as §1

[3] = molecular target: Neu5Ac(a2-3)[GalNAc(b1-4)]Gal(b1-4)GlcNAc
Method in brief: as §1

[4] = molecular target: Neu5Ac(a2-3)[GalNAc(b1-4)]Gal(b1-4)GlcNAc(b1-3)GalNAc
Method in brief: as §1

[5] = molecular target: Neu5Ac(a2-3)[Neu5Ac(a2-6)]GalNAc
Method in brief: as §1

[6] = molecular target: Neu5Ac(a2-6)Gal
Method in brief: as §1

[7] = molecular target: Neu5Ac(a2-6)Gal(b1-3)GlcNAc(b1-3)[Gal(b1-4)GlcNAc(b1-6)]Gal(b1-4)Glc
Method in brief: as §1

[8] = molecular target: Neu5Ac(a2-6)Gal(b1-4)Glc
Method in brief: as §1

[9] = molecular target: Neu5Ac(a2-6)Gal(b1-4)GlcNAc
Method in brief: as §1

[10] = molecular target: Neu5Ac(a2-6)Gal(b1-4)GlcNAc(b1-2)Man
Method in brief: as §1

[11] = molecular target: Neu5Ac(a2-6)Gal(b1-4)GlcNAc(b1-2)Man(a1-3)Man(b1-4)GlcNAc(b1-4)GlcNAc
Method in brief: as §1

[12] = molecular target: Neu5Ac(a2-6)Gal(b1-4)GlcNAc(b1-2)Man(a1-3)[Gal(b1-4)GlcNAc(b1-2)Man(a1-6)]Man(b1-4)GlcNAc(b1-4)GlcNAc
Method in brief: as §1

[13] = molecular target: Neu5Ac(a2-6)Gal(b1-4)GlcNAc(b1-2)Man(a1-3)[GlcNAc(b1-2)Man(a1-6)]Man(b1-4)GlcNAc(b1-4)GlcNAc
Method in brief: as §1

[14] = molecular target: Neu5Ac(a2-6)Gal(b1-4)GlcNAc(b1-2)Man(a1-3)[GlcNAc(b1-2)Man(b1-4)GlcNAc(b1-2)Man(a1-6)]Man(b1-4)GlcNAc(b1-4)GlcNAc
Method in brief: as §1

[15] = molecular target: Neu5Ac(a2-6)Gal(b1-4)GlcNAc(b1-2)Man(a1-3)[GlcNAc(b1-4)][Neu5Ac(a2-6)Gal(b1-4)GlcNAc(b1-2)Man(a1-6)]Man(b1-4)GlcNAc(b1-4)GlcNAc
Method in brief: as §1

[16] = molecular target: Neu5Ac(a2-6)Gal(b1-4)GlcNAc(b1-2)Man(a1-3)[Man(a1-6)]Man(b1-4)GlcNAc(b1-4)GlcNAc
Method in brief: as §1

[17] = molecular target: Neu5Ac(a2-6)Gal(b1-4)GlcNAc(b1-2)Man(a1-3)[Neu5Ac(a2-3)Gal(b1-4)GlcNAc(b1-2)Man(a1-6)]Man(b1-4)GlcNAc(b1-4)GlcNAc
Method in brief: as §1

[18] = molecular target: Neu5Ac(a2-6)Gal(b1-4)GlcNAc(b1-2)Man(a1-3)[Neu5Ac(a2-6)Gal(b1-4)GlcNAc(b1-2)Man(a1-6)]Man(b1-4)GlcNAc(b1-4)GlcNAc
Method in brief: as §1

[19] = molecular target: Neu5Ac(a2-6)Gal(b1-4)GlcNAc(b1-2)Man(a1-3)[Neu5Ac(a2-6)Gal(b1-4)GlcNAc(b1-2)Man(a1-6)]Man(b1-4)GlcNAc(b1-4)[Fuc(a1-6)]GlcNAc
Method in brief: as §1

[20] = molecular target: Neu5Ac(a2-6)Gal(b1-4)GlcNAc(b1-2)Man(a1-6)Man(b1-4)GlcNAc(b1-4)GlcNAc
Method in brief: as §1

[21] = molecular target: Neu5Ac(a2-6)Gal(b1-4)GlcNAc(b1-2)Man(a1-6)[Gal(b1-4)GlcNAc(b1-2)Man(a1-3)]Man(b1-4)GlcNAc(b1-4)GlcNAc
Method in brief: as §1

[22] = molecular target: Neu5Ac(a2-6)Gal(b1-4)GlcNAc(b1-2)Man(a1-6)[GlcNAc(b1-2)Man(a1-3)]Man(b1-4)GlcNAc(b1-4)GlcNAc
Method in brief: as §1

[23] = molecular target: Neu5Ac(a2-6)Gal(b1-4)GlcNAc(b1-2)Man(a1-6)[Man(a1-3)]Man(b1-4)GlcNAc(b1-4)GlcNAc
Method in brief: as §1

[24] = molecular target: Neu5Ac(a2-6)Gal(b1-4)GlcNAc(b1-2)[Neu5Ac(a2-6)Gal(b1-4)GlcNAc(b1-4)]Man(a1-3)[GlcNAc(b1-4)][Neu5Ac(a2-6)Gal(b1-4)GlcNAc(b1-2)[Neu5Ac(a2-6)Gal(b1-4)GlcNAc(b1-6)]Man(a1-6)]Man(b1-4)GlcNAc(b1-4)GlcNAc
Method in brief: as §1

[25] = molecular target: Neu5Ac(a2-6)Gal(b1-4)GlcNAc(b1-2)[Neu5Ac(a2-6)Gal(b1-4)GlcNAc(b1-4)]Man(a1-3)[GlcNAc(b1-4)][Neu5Ac(a2-6)Gal(b1-4)GlcNAc(b1-4)Man(a1-6)]Man(b1-4)GlcNAc(b1-4)GlcNAc
Method in brief: as §1

[26] = molecular target: Neu5Ac(a2-6)Gal(b1-4)GlcNAc(b1-2)[Neu5Ac(a2-6)Gal(b1-4)GlcNAc(b1-6)]Man(a1-6)[Neu5Ac(a2-6)Gal(b1-4)GlcNAc(b1-2)Man(a1-3)][GlcNAc(b1-4)]Man(b1-4)GlcNAc(b1-4)GlcNAc
Method in brief: as §1

[27] = molecular target: Neu5Ac(a2-6)Gal(b1-4)GlcNAc(b1-3)Gal(b1-3)GlcNAc
Method in brief: as §1

[28] = molecular target: Neu5Ac(a2-6)Gal(b1-4)GlcNAc(b1-3)Gal(b1-4)GlcNAc
Method in brief: as §1

[29] = molecular target: Neu5Ac(a2-6)Gal(b1-4)GlcNAc(b1-3)Gal(b1-4)GlcNAc(b1-2)Man(a1-3)[Neu5Ac(a2-6)Gal(b1-4)GlcNAc(b1-3)Gal(b1-4)GlcNAc(b1-2)Man(a1-6)]GalNAc
Method in brief: as §1

[30] = molecular target: Neu5Ac(a2-6)Gal(b1-4)GlcNAc(b1-3)Gal(b1-4)GlcNAc(b1-3)Gal(b1-4)GlcNAc
Method in brief: as §1

[31] = molecular target: Neu5Ac(a2-6)Gal(b1-4)GlcNAc(b1-3)Gal(b1-4)GlcNAc(b1-3)Gal(b1-4)GlcNAc(b1-2)Man(a1-3)[Neu5Ac(a2-6)Gal(b1-4)GlcNAc(b1-3)Gal(b1-4)GlcNAc(b1-3)Gal(b1-4)GlcNAc(b1-2)Man(a1-6)]GalNAc
Method in brief: as §1

[32] = molecular target: Neu5Ac(a2-6)Gal(b1-4)GlcNAc(b1-3)Gal(b1-4)GlcNAc(b1-3)GalNAc
Method in brief: as §1

[33] = molecular target: Neu5Ac(a2-6)Gal(b1-4)GlcNAc(b1-3)Gal(b1-4)GlcNAc(b1-3)[Neu5Ac(a2-6)Gal(b1-4)GlcNAc(b1-3)Gal(b1-4)GlcNAc(b1-6)]GalNAc
Method in brief: as §1

[34] = molecular target: Neu5Ac(a2-6)Gal(b1-4)GlcNAc(b1-3)Gal(b1-4)GlcNAc(b1-6)[Gal(b1-3)]GalNAc
Method in brief: as §1

[35] = molecular target: Neu5Ac(a2-6)Gal(b1-4)GlcNAc(b1-3)Gal(b1-4)[Fuc(a1-3)]GlcNAc(b1-3)Gal(b1-4)[Fuc(a1-3)]GlcNAc
Method in brief: as §1

[36] = molecular target: Neu5Ac(a2-6)Gal(b1-4)GlcNAc(b1-3)GalNAc
Method in brief: as §1

[37] = molecular target: Neu5Ac(a2-6)Gal(b1-4)GlcNAc(b1-3)[Neu5Ac(a2-6)Gal(b1-4)GlcNAc(b1-6)]GalNAc
Method in brief: as §1

[38] = molecular target: Neu5Ac(a2-6)Gal(b1-4)GlcNAc(b1-6)GalNAc
Method in brief: as §1

B1: Gal 8 (Homo sapiens) (protein)
chain: MLSLNNLQNIIYNPVIPYVGTIPDQLDPGTLIVICGHVPSDADRFQVDLQNGSSVKPRADVAFHFNPRFKRAGCIVCNTLINEKWGREEITYDTPFKREKSFEIVIMVLKDKFQVAVNGKHTLLYGHRIGPEKIDTLGIYGKVNIHSIGFSFSSDLQSTQASSLELTEISRENVPKSGTPQLQTVSPSWDLQGHGSETFCSVLWTRVFLEIAFCRPIGLTVASFQSLPFAARLNTPMGPGRTVVVKGEVNANAKSFNVDLLAGKSKDIALHLNPRLNIKAFVRNSFLQESWGEEERNITSFPFSPGMYFEMIIYCDVREFKVAVNGVHSLEYKHRFKELSSIDTLEINGDIHLLEVRSW
glycan array binding signal (z-score) [1]: -0.021 | glycan array binding signal (z-score) [2]: -0.4 | glycan array binding signal (z-score) [3]: -0.382 | glycan array binding signal (z-score) [4]: -0.354 | glycan array binding signal (z-score) [5]: -0.404 | glycan array binding signal (z-score) [6]: -0.391 | glycan array binding signal (z-score) [7]: -0.356 | glycan array binding signal (z-score) [8]: 0.145 | glycan array binding signal (z-score) [9]: -0.383 | glycan array binding signal (z-score) [10]: -0.357 | glycan array binding signal (z-score) [11]: -0.356 | glycan array binding signal (z-score) [12]: -0.355 | glycan array binding signal (z-score) [13]: -0.361 | glycan array binding signal (z-score) [14]: -0.258 | glycan array binding signal (z-score) [15]: -0.358 | glycan array binding signal (z-score) [16]: -0.358 | glycan array binding signal (z-score) [17]: -0.351 | glycan array binding signal (z-score) [18]: -0.354 | glycan array binding signal (z-score) [19]: -0.356 | glycan array binding signal (z-score) [20]: -0.357 | glycan array binding signal (z-score) [21]: -0.351 | glycan array binding signal (z-score) [22]: -0.037 | glycan array binding signal (z-score) [23]: -0.357 | glycan array binding signal (z-score) [24]: -0.358 | glycan array binding signal (z-score) [25]: -0.358 | glycan array binding signal (z-score) [26]: -0.357 | glycan array binding signal (z-score) [27]: 2.01 | glycan array binding signal (z-score) [28]: 0.539 | glycan array binding signal (z-score) [29]: 1.46 | glycan array binding signal (z-score) [30]: 0.504 | glycan array binding signal (z-score) [31]: 0.661 | glycan array binding signal (z-score) [32]: -0.145 | glycan array binding signal (z-score) [33]: -0.166 | glycan array binding signal (z-score) [34]: -0.068 | glycan array binding signal (z-score) [35]: -0.378 | glycan array binding signal (z-score) [36]: -0.355 | glycan array binding signal (z-score) [37]: -0.357 | glycan array binding signal (z-score) [38]: -0.357

Source: the supplement of paper PMC8728848
